Source: the supplement of paper PMC8728848
The list shows a part of the results.

Columns and labels:
Experiment in all cases: glycan array binding signal (z-score within array); higher = stronger binding
Conditions in all cases: glycan notation: IUPAC condensed, linker removed
[1] = molecular target: Neu5Ac(a2-3)Gal(b1-4)[Fuc(a1-3)]GlcNAc
Method in brief: (§1)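 Negative Z-scores can be read as non-binding. The Z-score is calculated within each array and then averaged across arrays of one protein sequence at different concentrations or buffers and across linkers. Arrays, 3228 in all, were curated from the Consortium for Functional Glycomics database and kept only where the protein sequence was available.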

[2] = molecular target: Neu5Ac(a2-3)Gal(b1-4)[Fuc(a1-3)]GlcNAc(b1-2)Man
Method in brief: as §1

[3] = molecular target: Neu5Ac(a2-3)Gal(b1-4)[Fuc(a1-3)]GlcNAc(b1-3)Gal
Method in brief: as §1

[4] = molecular target: Neu5Ac(a2-3)Gal(b1-4)[Fuc(a1-3)]GlcNAc(b1-3)Gal(b1-4)GlcNAc
Method in brief: as §1

[5] = molecular target: Neu5Ac(a2-3)Gal(b1-4)[Fuc(a1-3)]GlcNAc(b1-3)Gal(b1-4)[Fuc(a1-3)]GlcNAc(b1-3)Gal(b1-4)[Fuc(a1-3)]GlcNAc
Method in brief: as §1

[6] = molecular target: Neu5Ac(a2-3)Gal(b1-4)[Fuc(a1-3)]GlcNAc(b1-3)GalNAc
Method in brief: as §1

[7] = molecular target: Neu5Ac(a2-3)Gal(b1-4)[Fuc(a1-3)]GlcNAc(b1-6)[Gal(b1-3)]GalNAc
Method in brief: as §1

[8] = molecular target: Neu5Ac(a2-3)Gal(b1-4)[Fuc(a1-3)]GlcNAc(b1-6)[Neu5Ac(a2-3)Gal(b1-3)]GalNAc
Method in brief: as §1

[9] = molecular target: Neu5Ac(a2-3)Gal(b1-4)[Fuc(a1-3)]GlcNAc6S
Method in brief: as §1

[10] = molecular target: Neu5Ac(a2-3)Gal6S(b1-4)GlcNAc
Method in brief: as §1

[11] = molecular target: Neu5Ac(a2-3)Gal6S(b1-4)[Fuc(a1-3)]GlcNAc
Method in brief: as §1

Neu5Ac(a2-3)GalNAc = molecular target: Neu5Ac(a2-3)GalNAc
Method in brief: as §1

[12] = molecular target: Neu5Ac(a2-3)GalNAc(b1-4)GlcNAc
Method in brief: as §1

[13] = molecular target: Neu5Ac(a2-3)[GalNAc(b1-4)]Gal(b1-4)Glc
Method in brief: as §1

[14] = molecular target: Neu5Ac(a2-3)[GalNAc(b1-4)]Gal(b1-4)GlcNAc
Method in brief: as §1

[15] = molecular target: Neu5Ac(a2-3)[GalNAc(b1-4)]Gal(b1-4)GlcNAc(b1-3)GalNAc
Method in brief: as §1

[16] = molecular target: Neu5Ac(a2-3)[Neu5Ac(a2-6)]GalNAc
Method in brief: as §1

Neu5Ac(a2-6)Gal = molecular target: Neu5Ac(a2-6)Gal
Method in brief: as §1

[17] = molecular target: Neu5Ac(a2-6)Gal(b1-3)GlcNAc(b1-3)[Gal(b1-4)GlcNAc(b1-6)]Gal(b1-4)Glc
Method in brief: as §1

Neu5Ac(a2-6)Gal(b1-4)Glc = molecular target: Neu5Ac(a2-6)Gal(b1-4)Glc
Method in brief: as §1

[18] = molecular target: Neu5Ac(a2-6)Gal(b1-4)GlcNAc
Method in brief: as §1

[19] = molecular target: Neu5Ac(a2-6)Gal(b1-4)GlcNAc(b1-2)Man
Method in brief: as §1

[20] = molecular target: Neu5Ac(a2-6)Gal(b1-4)GlcNAc(b1-2)Man(a1-3)Man(b1-4)GlcNAc(b1-4)GlcNAc
Method in brief: as §1

[21] = molecular target: Neu5Ac(a2-6)Gal(b1-4)GlcNAc(b1-2)Man(a1-3)[Gal(b1-4)GlcNAc(b1-2)Man(a1-6)]Man(b1-4)GlcNAc(b1-4)GlcNAc
Method in brief: as §1

[22] = molecular target: Neu5Ac(a2-6)Gal(b1-4)GlcNAc(b1-2)Man(a1-3)[GlcNAc(b1-2)Man(a1-6)]Man(b1-4)GlcNAc(b1-4)GlcNAc
Method in brief: as §1

[23] = molecular target: Neu5Ac(a2-6)Gal(b1-4)GlcNAc(b1-2)Man(a1-3)[GlcNAc(b1-4)][Neu5Ac(a2-6)Gal(b1-4)GlcNAc(b1-2)Man(a1-6)]Man(b1-4)GlcNAc(b1-4)GlcNAc
Method in brief: as §1

[24] = molecular target: Neu5Ac(a2-6)Gal(b1-4)GlcNAc(b1-2)Man(a1-3)[Man(a1-6)]Man(b1-4)GlcNAc(b1-4)GlcNAc
Method in brief: as §1

[25] = molecular target: Neu5Ac(a2-6)Gal(b1-4)GlcNAc(b1-2)Man(a1-3)[Neu5Ac(a2-3)Gal(b1-4)GlcNAc(b1-2)Man(a1-6)]Man(b1-4)GlcNAc(b1-4)GlcNAc
Method in brief: as §1

[26] = molecular target: Neu5Ac(a2-6)Gal(b1-4)GlcNAc(b1-2)Man(a1-3)[Neu5Ac(a2-6)Gal(b1-4)GlcNAc(b1-2)Man(a1-6)]Man(b1-4)GlcNAc(b1-4)GlcNAc
Method in brief: as §1

[27] = molecular target: Neu5Ac(a2-6)Gal(b1-4)GlcNAc(b1-2)Man(a1-3)[Neu5Ac(a2-6)Gal(b1-4)GlcNAc(b1-2)Man(a1-6)]Man(b1-4)GlcNAc(b1-4)[Fuc(a1-6)]GlcNAc
Method in brief: as §1

[28] = molecular target: Neu5Ac(a2-6)Gal(b1-4)GlcNAc(b1-2)Man(a1-6)Man(b1-4)GlcNAc(b1-4)GlcNAc
Method in brief: as §1

[29] = molecular target: Neu5Ac(a2-6)Gal(b1-4)GlcNAc(b1-2)Man(a1-6)[Gal(b1-4)GlcNAc(b1-2)Man(a1-3)]Man(b1-4)GlcNAc(b1-4)GlcNAc
Method in brief: as §1

[30] = molecular target: Neu5Ac(a2-6)Gal(b1-4)GlcNAc(b1-2)Man(a1-6)[GlcNAc(b1-2)Man(a1-3)]Man(b1-4)GlcNAc(b1-4)GlcNAc
Method in brief: as §1

[31] = molecular target: Neu5Ac(a2-6)Gal(b1-4)GlcNAc(b1-2)Man(a1-6)[Man(a1-3)]Man(b1-4)GlcNAc(b1-4)GlcNAc
Method in brief: as §1

[32] = molecular target: Neu5Ac(a2-6)Gal(b1-4)GlcNAc(b1-2)[Neu5Ac(a2-6)Gal(b1-4)GlcNAc(b1-4)]Man(a1-3)[GlcNAc(b1-4)][Neu5Ac(a2-6)Gal(b1-4)GlcNAc(b1-2)[Neu5Ac(a2-6)Gal(b1-4)GlcNAc(b1-6)]Man(a1-6)]Man(b1-4)GlcNAc(b1-4)GlcNAc
Method in brief: as §1

[33] = molecular target: Neu5Ac(a2-6)Gal(b1-4)GlcNAc(b1-2)[Neu5Ac(a2-6)Gal(b1-4)GlcNAc(b1-4)]Man(a1-3)[GlcNAc(b1-4)][Neu5Ac(a2-6)Gal(b1-4)GlcNAc(b1-4)Man(a1-6)]Man(b1-4)GlcNAc(b1-4)GlcNAc
Method in brief: as §1

[34] = molecular target: Neu5Ac(a2-6)Gal(b1-4)GlcNAc(b1-2)[Neu5Ac(a2-6)Gal(b1-4)GlcNAc(b1-6)]Man(a1-6)[Neu5Ac(a2-6)Gal(b1-4)GlcNAc(b1-2)Man(a1-3)][GlcNAc(b1-4)]Man(b1-4)GlcNAc(b1-4)GlcNAc
Method in brief: as §1

[35] = molecular target: Neu5Ac(a2-6)Gal(b1-4)GlcNAc(b1-3)Gal(b1-3)GlcNAc
Method in brief: as §1

[36] = molecular target: Neu5Ac(a2-6)Gal(b1-4)GlcNAc(b1-3)Gal(b1-4)GlcNAc
Method in brief: as §1

[37] = molecular target: Neu5Ac(a2-6)Gal(b1-4)GlcNAc(b1-3)Gal(b1-4)GlcNAc(b1-2)Man(a1-3)[Neu5Ac(a2-6)Gal(b1-4)GlcNAc(b1-3)Gal(b1-4)GlcNAc(b1-2)Man(a1-6)]GalNAc
Method in brief: as §1

[38] = molecular target: Neu5Ac(a2-6)Gal(b1-4)GlcNAc(b1-3)Gal(b1-4)GlcNAc(b1-3)Gal(b1-4)GlcNAc
Method in brief: as §1

[39] = molecular target: Neu5Ac(a2-6)Gal(b1-4)GlcNAc(b1-3)Gal(b1-4)GlcNAc(b1-3)Gal(b1-4)GlcNAc(b1-2)Man(a1-3)[Neu5Ac(a2-6)Gal(b1-4)GlcNAc(b1-3)Gal(b1-4)GlcNAc(b1-3)Gal(b1-4)GlcNAc(b1-2)Man(a1-6)]GalNAc
Method in brief: as §1

[40] = molecular target: Neu5Ac(a2-6)Gal(b1-4)GlcNAc(b1-3)Gal(b1-4)GlcNAc(b1-3)GalNAc
Method in brief: as §1

[41] = molecular target: Neu5Ac(a2-6)Gal(b1-4)GlcNAc(b1-3)Gal(b1-4)GlcNAc(b1-3)[Neu5Ac(a2-6)Gal(b1-4)GlcNAc(b1-3)Gal(b1-4)GlcNAc(b1-6)]GalNAc
Method in brief: as §1

[42] = molecular target: Neu5Ac(a2-6)Gal(b1-4)GlcNAc(b1-3)Gal(b1-4)GlcNAc(b1-6)[Gal(b1-3)]GalNAc
Method in brief: as §1

B1: ECA (Erythrina cristagalli), P83410 (protein)
chain: VETISFSFSEFEPGNDNLTLQGAALITQSGVLQLTKINQNGMPAWDSTGRTLYTKPVHMWDSTTGTVASFETRFSFSIEQPYTRPLPADGLVFFMGPTKSKPAQGYGYLGVFNNSKQDNSYQTLAVEFDTFSNPWDPPQVPHIGIDVNSIRSIKTQPFQLDNGQVANVVIKYDAPSKILHVVLVYPSSGAIYTIAEIVDVKQVLPDWVDVGLSGATGAQRDAAETHDVYSWSFQASLPE
- glycan array binding signal (z-score) [1]: -0.329
- glycan array binding signal (z-score) [2]: -0.398
- glycan array binding signal (z-score) [3]: -0.311
- glycan array binding signal (z-score) [4]: -0.311
- glycan array binding signal (z-score) [5]: -0.108
- glycan array binding signal (z-score) [6]: 0.567
- glycan array binding signal (z-score) [7]: -0.138
- glycan array binding signal (z-score) [8]: 0.02
- glycan array binding signal (z-score) [9]: -0.188
- glycan array binding signal (z-score) [10]: -0.263
- glycan array binding signal (z-score) [11]: -0.339
- glycan array binding signal (z-score) (Neu5Ac(a2-3)GalNAc): -0.225
- glycan array binding signal (z-score) [12]: -0.303
- glycan array binding signal (z-score) [13]: -0.315
- glycan array binding signal (z-score) [14]: -0.338
- glycan array binding signal (z-score) [15]: -0.601
- glycan array binding signal (z-score) [16]: -0.208
- glycan array binding signal (z-score) (Neu5Ac(a2-6)Gal): -0.208
- glycan array binding signal (z-score) [17]: -0.157
- glycan array binding signal (z-score) (Neu5Ac(a2-6)Gal(b1-4)Glc): -0.273
- glycan array binding signal (z-score) [18]: -0.243
- glycan array binding signal (z-score) [19]: -0.236
- glycan array binding signal (z-score) [20]: -0.165
- glycan array binding signal (z-score) [21]: -0.061
- glycan array binding signal (z-score) [22]: -0.527
- glycan array binding signal (z-score) [23]: -0.22
- glycan array binding signal (z-score) [24]: -0.377
- glycan array binding signal (z-score) [25]: -0.074
- glycan array binding signal (z-score) [26]: -0.327
- glycan array binding signal (z-score) [27]: 0.33
- glycan array binding signal (z-score) [28]: -0.317
- glycan array binding signal (z-score) [29]: -0.101
- glycan array binding signal (z-score) [30]: -0.44
- glycan array binding signal (z-score) [31]: -0.141
- glycan array binding signal (z-score) [32]: -0.419
- glycan array binding signal (z-score) [33]: -0.622
- glycan array binding signal (z-score) [34]: -0.44
- glycan array binding signal (z-score) [35]: -0.449
- glycan array binding signal (z-score) [36]: -0.296
- glycan array binding signal (z-score) [37]: 0.504
- glycan array binding signal (z-score) [38]: -0.578
- glycan array binding signal (z-score) [39]: 5.2
- glycan array binding signal (z-score) [40]: -0.153
- glycan array binding signal (z-score) [41]: 3.23
- glycan array binding signal (z-score) [42]: 0.104
